# According to paper PMC4336329 (PLoS ONE, 2015):
# Hit rate of the full screen: of about 310,000 compounds, about 2,200 (0.71%) showed an effect of 50% or more. Effects have a minus sign here. Some of the results follow.
# Biological target: human ether-à-go-go-related gene (hERG) potassium channel (human, UniProt Q12809)
# Experiment: primary screen, population patch clamp on CHO cells stably expressing hERG
# Chain of human ether-à-go-go-related gene (hERG) potassium channel (Q12809 whole entry, looked up): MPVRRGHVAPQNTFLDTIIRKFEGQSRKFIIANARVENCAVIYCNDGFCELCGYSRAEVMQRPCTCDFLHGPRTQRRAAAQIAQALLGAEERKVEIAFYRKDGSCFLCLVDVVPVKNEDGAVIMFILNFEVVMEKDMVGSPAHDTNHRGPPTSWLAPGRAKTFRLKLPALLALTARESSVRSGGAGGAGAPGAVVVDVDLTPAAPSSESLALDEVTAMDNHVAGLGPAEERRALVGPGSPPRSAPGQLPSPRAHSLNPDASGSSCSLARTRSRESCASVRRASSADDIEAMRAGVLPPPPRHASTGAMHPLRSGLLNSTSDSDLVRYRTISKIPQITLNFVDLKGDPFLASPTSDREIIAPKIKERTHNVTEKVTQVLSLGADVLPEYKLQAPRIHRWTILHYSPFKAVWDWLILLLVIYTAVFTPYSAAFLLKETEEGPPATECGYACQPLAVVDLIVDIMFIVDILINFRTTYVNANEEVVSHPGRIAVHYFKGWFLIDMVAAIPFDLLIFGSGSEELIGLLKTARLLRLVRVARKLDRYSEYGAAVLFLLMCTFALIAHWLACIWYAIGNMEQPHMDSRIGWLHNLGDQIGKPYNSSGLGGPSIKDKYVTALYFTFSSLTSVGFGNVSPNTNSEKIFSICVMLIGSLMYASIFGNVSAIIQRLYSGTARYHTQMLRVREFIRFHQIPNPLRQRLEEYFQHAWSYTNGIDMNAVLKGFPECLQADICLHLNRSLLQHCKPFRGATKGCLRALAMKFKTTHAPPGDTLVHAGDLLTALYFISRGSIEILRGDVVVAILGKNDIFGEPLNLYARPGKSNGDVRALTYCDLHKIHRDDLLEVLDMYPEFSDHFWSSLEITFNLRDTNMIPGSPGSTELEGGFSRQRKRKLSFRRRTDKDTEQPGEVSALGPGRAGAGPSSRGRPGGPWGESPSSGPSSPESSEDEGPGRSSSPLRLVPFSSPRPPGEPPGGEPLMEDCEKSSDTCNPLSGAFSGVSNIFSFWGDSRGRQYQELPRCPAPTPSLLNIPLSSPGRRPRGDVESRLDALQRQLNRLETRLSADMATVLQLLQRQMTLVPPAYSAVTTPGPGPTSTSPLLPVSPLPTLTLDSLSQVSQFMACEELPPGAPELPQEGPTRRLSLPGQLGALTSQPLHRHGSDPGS
row,SMILES,"hERG current change (%, negative = inhibition) at 1uM [%]"
1,COc1cccc(C2C(C(C)=O)=C(C)Nc3ncnn32)c1 (stereo not drawn),-0.273
2,CCn1c(=O)c(C(=O)NNC(=O)Cc2ccccc2)c(O)c2ccccc21,15
3,O=C(Nc1ccn(CC(=O)N2CCN(c3ccccn3)CC2)c(=O)n1)OCc1ccccc1,10.2
4,CSc1cc(C)c(OCC(=O)Nc2c(C)nn(C)c2C)c(C)c1,1.26
5,COc1ccc(C)cc1-n1cnnn1,14.4
6,CCC(CC)c1nnc(NC(=O)c2ccc(N3CCCCC3)c([N+](=O)[O-])c2)s1,-9.23
7,COCC(=O)N1CCCC(CNS(=O)(=O)c2ccc(OC)cc2)C1 (stereo not drawn),17.2
8,Cc1ccc(C(=O)Nc2ccc(N3CCN(C(=O)c4cccs4)CC3)cc2)c(Cl)c1,5.07
9,COC(=O)c1c(C)nsc1NC(=O)Oc1ccccc1,14.3
10,O/N=C/c1ccccc1OCc1ccccc1Cl,10.2
11,Cc1cc(C)nc(SCNC(=O)c2ccc(Cl)cc2)n1,20.2
12,CCOc1cc(/C=N/NC(=O)c2cccnc2)cc(Br)c1OCC(N)=O,-69.4
13,O=C(NCc1ccccc1)c1cc2ccccc2oc1=O,11
14,O=C(NC(=S)NNC(=O)c1ccccc1O)c1cccs1,12.5
15,COc1c(C)cc(S(=O)(=O)N2CCCC2)c(C)c1C,-0.179
16,Cn1c(-c2c(N)n(CCc3ccccc3)c3nc4ccccc4nc23)nc2ccccc21,3.68
17,O=C(/C=C\c1ccccc1)Oc1cccc2cccnc12,9.02
18,CCN(CC)C(=O)Oc1c(Cl)cc(Cl)c2cccnc12,7.57
19,Cc1ccc(CNC(=O)CC2(CC3=NS(=O)(=O)c4ccccc4N3)CCCC2)cc1,8.2
20,CC(C)(C)c1ccc(C(=O)N2CCCC2)s1,14.4
21,Cc1c(C)c2ccc(Oc3ccc([N+](=O)[O-])cc3C(F)(F)F)c(C)c2oc1=O,14.1
22,CCOc1cccc(OCCCCn2ccnc2)c1,-2.74
23,CC1(C(=O)NCc2cccnc2)CCC(=O)N1Cc1cccs1 (stereo not drawn),11.6

row,SMILES,"hERG current change (%, negative = inhibition) at 1uM [%]"
1,O=C(COc1ncnc2ccccc12)NCCCN1CCCC1=O,-3.47
2,CCN1CCN(CC(O)COC(c2ccccc2)c2ccccc2)CC1 (stereo not drawn),7.15
3,Cc1ccc(-c2nnc(-c3ccncc3)n2-c2ccc(C)cc2)cc1,4.94
4,CCc1c(C#N)c(SCCC(=O)Nc2cccc(OC)c2)nc2c1C(=O)CC(C)(C)C2,13
5,COc1ccc(Cc2ccc(OC)c(N)c2)cc1N,1.31
6,Cc1cccc(NC(=O)CSCC(=O)N(C)CCOc2ccc(Cl)cc2)c1,9.05
7,O=C(Nc1ccc2c(c1)OCO2)Nc1cnccn1,5.8
8,O=C(NC1CCCC1)C1CC(=O)N(CCc2ccccc2)C1 (stereo not drawn),14.5
9,CC(=O)N1CCc2cc(Br)cc(S(=O)(=O)N3CCC(C(=O)O)CC3)c21,9.67
10,COc1ccc(-c2nc(N)n(S(=O)(=O)c3ccc(C)cc3)n2)cc1,28.4
11,COC(=O)Cc1cc(=O)[nH]c(/N=C(\N)Nc2ccc(C)cc2C)n1,5.4
12,N#Cc1nc(-c2cccs2)oc1N1CCOCC1,7.52
13,Cc1cc(NC(=O)CSc2nc(CC(C)(C)C)nc3c2c(=O)n(C)c(=O)n3C)no1,10
14,COc1cc(OC)c(C(=O)NNC(=S)NC2CCCCC2)cc1OC,13
15,CCOC(=O)C1(CCCc2ccccc2)CCN(C(=O)Cc2nonc2C)CC1,-13
16,Cn1c(-c2ccccc2)cnc1SCC(=O)N1CCCCC1,4.87
17,COC(=O)c1c(CSc2ccc(C)c(C)c2)noc1C(=O)NCc1ccc(OC)cc1,-0.265
18,O=C(NCc1ccccc1F)C1CCCN(C(=O)Nc2ccc(F)cc2)C1 (stereo not drawn),9.36
19,CC(C)C(=O)Nc1ccc(C(=O)CN2C(=O)NC3(CCOc4ccccc43)C2=O)cc1 (stereo not drawn),7.29
20,CC(=O)c1ccc(S(=O)(=O)N2CCN(C(=O)CN3C(=O)NC4(CCCC4)C3=O)CC2)cc1,8.95
21,CCN1C(=O)c2ccccc2S(=O)(=O)c2ccc(C(=O)NCCOC)cc21,12
22,O=C(CSc1nc2ccccc2s1)NC(=O)NCc1ccco1,10.4
